Laboratory results as given in the supplement of paper PMC12217912.
This is one part of the list. The full chains were built here from the parent and the listed change. Inactive controls read about 0.05.

B1: TEV protease; numbered along this chain (parent)
chain: MGESLFKGPRDYNPISSSICHLTNESDGHTTSLYGIGFGPFIITNKHLFRRNNGTLVVQSLHGVFKVKDTTTLQQHLVDGRDMIIIRMPKDFPPFPQKLKFREPQREERICLVTTNFQTKSMSSMVSDTSCTFPSGDGIFWKHWIQTKDGQCGSPLVSTRDGFIVGIHSASNFTNTNNYFTSVPKNFMELLTNQEAQQWVSGWRLNADSVLWGGHKVFMVKPEEPFQPVKEATQL

Variants of: B1
Assay: raw area under fraction-flipped curve 0-4 h after induction (AUC4h, not background-subtracted), DNA-recorder readout of cleavage of the substrate (dimensionless); higher = more cleavage of the substrate by the protease variant
Details: temperature: 34 °C; time window: 0-4 h after rhamnose induction
Description: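 In vivo DNA recorder in E. coli TOP10(DE3) ΔrhaA at 34 °C. Each TEVp single-site mutant (parent TEVp 0) is paired with a single-site variant of the 7-mer TEVs (canonical ENLYFQ|S). The substrate sits between flexible linkers in a Bxb1-sfGFP-TEVs-SsrA fusion, so cleavage stabilises Bxb1 and speeds flipping of a recombination array, read by NGS. The value is the raw area under the fraction-flipped curve over 0-4 h after rhamnose induction (AUC4h), with ≥20 reads per time point. It is not background-subtracted; inactive controls average about 0.047.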
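Further: Bxb1 expression induced with 0.2% (w/v) L-rhamnose at OD600 near 0.5, cultures sampled hourly, flipped fraction per protease–substrate barcode pair counted by paired-end Illumina sequencing.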

Row | Variant | area with substrate ENLYFAS | area with substrate ENLYFCS | area with substrate ENLYFDS | area with substrate ENLYFES | area with substrate ENLYFGS | area with substrate ENLYFHS | area with substrate ENLYFIS | area with substrate ENLYFKS | area with substrate ENLYFMS | area with substrate ENLYFNS | area with substrate ENLYFPS | area with substrate ENLYFRS | area with substrate ENLYFSS | area with substrate ENLYFVS | area with substrate ENLYFWS | area with substrate ENLYFYS | area with substrate ENLYFFS | area with substrate ENLYFLS | area with substrate ENLYFTS
1 | G37Q | 0.0652 | 0.0517 | 0.0484 | 0.0498 | 0.0569 | 0.0535 | 0.0459 | 0.0554 | 0.0678 | 0.0477 | 0.0523 | 0.0513 | 0.0601 | 0.0564 | 0.0642 | 0.0542 |  |  | 
2 | T31Q | 0.0537 |  |  | 0.0739 | 0.06 |  | 0.0564 | 0.0634 | 0.0682 | 0.0461 | 0.0715 | 0.0735 | 0.0455 |  |  |  | 0.0673 |  | 
3 | N45Y | 0.0464 | 0.059 | 0.0694 | 0.0657 | 0.0619 | 0.0588 | 0.0581 | 0.0525 | 0.0583 | 0.0506 | 0.0637 | 0.0601 | 0.0657 |  | 0.0605 | 0.0607 | 0.0586 | 0.0568 | 0.0767
4 | I19G | 0.0841 | 0.0546 | 0.0503 | 0.0537 | 0.0477 | 0.0676 | 0.0568 | 0.056 | 0.0554 |  | 0.05 |  | 0.056 | 0.0178 | 0.0534 |  | 0.0689 | 0.0514 | 0.0518
5 | S17G | 0.0504 | 0.0662 | 0.0625 | 0.051 | 0.0641 | 0.0612 | 0.054 | 0.0673 | 0.0553 | 0.0715 | 0.0644 | 0.0609 | 0.0507 | 0.058 |  | 0.055 | 0.0704 | 0.0643 | 0.0579
6 | S17C | 0.0607 | 0.0682 | 0.0717 | 0.0634 | 0.0577 | 0.0581 | 0.0601 |  | 0.0607 | 0.0724 | 0.067 | 0.0518 | 0.0616 | 0.0551 | 0.0644 | 0.0545 | 0.0692 |  | 0.0493
7 | N13Q | 0.0674 | 0.0633 | 0.0704 | 0.0545 |  | 0.0656 | 0.0518 | 0.0602 | 0.0642 |  | 0.0613 | 0.0622 |  | 0.0518 | 0.0553 |  | 0.0487 | 0.0522 | 0.0612
8 | F41D | 0.047 | 0.0602 | 0.0246 |  | 0.0439 | 0.0599 | 0.0471 | 0.0632 | 0.0607 |  | 0.0519 | 0.0491 | 0.056 | 0.0524 | 0.0532 |  | 0.0531 | 0.0393 | 0.0263
9 | N52G | 0.063 | 0.0474 | 0.0572 | 0.0587 |  | 0.0585 | 0.0564 | 0.048 | 0.0596 | 0.0599 | 0.0591 |  | 0.0605 |  |  | 0.0636 | 0.0336 |  | 0.0627
10 | L56F | 0.0531 | 0.0536 | 0.072 | 0.0507 |  | 0.0596 | 0.0562 | 0.0618 | 0.062 | 0.0649 | 0.0534 | 0.0474 | 0.0612 | 0.0638 |  | 0.053 | 0.0687 | 0.0383 | 0.06
11 | T44R | 0.0361 | 0.0478 | 0.0417 | 0.0545 |  | 0.0594 | 0.0365 | 0.0528 | 0.0458 | 0.0424 | 0.0308 | 0.0341 | 0.0094 |  | 0.0528 | 0.0213 | 0.0487 | 0.0601 | 0.0504
12 | T55V | 0.0551 | 0.0481 | 0.0575 | 0.0771 | 0.0664 | 0.0769 | 0.0657 | 0.0855 | 0.0575 | 0.0645 | 0.0623 |  | 0.0626 | 0.0435 | 0.0594 | 0.0583 | 0.0746 | 0.0471 | 0.0495
13 | T55Q | 0.0597 | 0.0735 | 0.0345 | 0.0666 |  |  | 0.0569 |  | 0.0658 | 0.0589 | 0.0609 | 0.0627 | 0.0861 | 0.0522 | 0.0552 | 0.0549 | 0.0656 | 0.0712 | 0.0389
14 | T23W | 0.048 | 0.0457 | 0.0554 | 0.0645 | 0.0643 | 0.0542 | 0.0564 | 0.0591 | 0.065 | 0.0571 | 0.0629 | 0.055 | 0.0528 | 0.059 | 0.0494 | 0.057 | 0.063 |  | 0.0586
15 | L33S | 0.0654 | 0.0547 | 0.049 |  | 0.0495 | 0.063 | 0.0527 | 0.0584 | 0.0611 | 0.074 | 0.051 | 0.0595 | 0.0664 |  | 0.0447 |  | 0.0661 |  | 
16 | I15L | 0.0571 | 0.0642 | 0.0535 | 0.0517 | 0.053 | 0.06 | 0.0598 | 0.0568 | 0.0682 | 0.066 |  | 0.0611 |  | 0.0581 | 0.0678 |  | 0.071 | 0.0608 | 0.046
17 | I15F | 0.0595 | 0.0553 |  | 0.0626 |  | 0.0639 | 0.0552 |  | 0.0644 | 0.0672 | 0.0625 | 0.0549 |  | 0.0517 |  | 0.0429 | 0.0638 | 0.0605 | 0.0524
18 | S18T | 0.0563 | 0.0523 |  | 0.0773 |  | 0.0645 | 0.053 | 0.0708 | 0.0604 | 0.0646 | 0.048 |  |  |  |  | 0.0469 | 0.0596 |  | 
19 | S18N | 0.0565 | 0.0609 |  | 0.0706 | 0.0353 | 0.0653 | 0.0547 | 0.0569 | 0.0776 | 0.07 | 0.0543 |  | 0.0481 |  | 0.0535 | 0.0525 | 0.0873 |  | 0.0632
20 | Y34L | 0.0559 |  |  | 0.0786 |  |  | 0.0191 | 0.0376 | 0.0641 |  | 0.092 | 0.0815 |  |  | 0.0501 |  | 0.0691 |  | 0.06
21 | R51I | 0.0427 | 0.0661 | 0.0701 | 0.0659 |  | 0.0413 | 0.0529 | 0.0624 | 0.0677 |  | 0.0662 |  |  | 0.067 | 0.0523 | 0.0495 | 0.0712 | 0.0581 | 0.0535
22 | S32C | 0.0611 | 0.051 | 0.0648 | 0.0625 | 0.0687 | 0.0518 | 0.054 | 0.0697 | 0.0729 | 0.0595 | 0.0788 | 0.0563 | 0.0654 |  | 0.0575 |  | 0.0591 | 0.0532 | 0.0588
23 | S32F | 0.0577 | 0.0609 | 0.0559 | 0.0618 | 0.0597 | 0.0573 | 0.0533 | 0.0602 | 0.0474 | 0.0527 | 0.0607 |  | 0.0398 | 0.0553 |  | 0.0511 | 0.0549 | 0.0653 | 0.0751
